{"source": "PubChem BioAssay AID2101", "about": "(National Center for Advancing Translational Sciences (NCATS), 2009)", "note": "Among all 330,000 compounds or so, about 300 (0.091%) were called active. Inconclusive means that the source gave no clear call. Such entries were picked first, then a sample of the others. Calls follow the shape of the dose curve; as a rule, active = well fitted inhibition curve with a large enough effect; inconclusive = small, poorly fitted or top-dose-only effect, or effect the other way, or another doubt; inactive = no such curve, though single readings can be large or run the other way. Potencies of inconclusive entries are left out as doubtful fits. Potency is read from the fitted curve at half-maximal effect."}
{"molecular_target": "Lysosomal acid glucosylceramidase (Homo sapiens) (UniProt P04062)", "test": "qHTS Assay for Inhibitors and Activators of N370S glucocerebrosidase as a Potential Chaperone Treatment of Gaucher Disease;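 as to activity change, negative = inhibition: 0% = full enzyme activity and -100% = no enzyme basal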", "conditions": "N370S GC spleen homogenate, 4MU-glucoside fluorescence; activity change, negative = inhibition: at 59.4 µM (top of the series) unless noted"}
{"smiles": "Cc1ccc(SCC(=O)N(Cc2nc(-c3ccccc3)no2)C(C)C)cc1", "Potency": "inconclusive [activator, partial curve]"}
{"smiles": "O=C(CSc1ncn(-c2ccccc2)n1)Nc1ccc2c(c1)OCCO2", "Potency": "inconclusive [activator, single point]"}
{"smiles": "C=CCn1c(SCC(=O)Nc2sccc2C(N)=O)nc2sc(CC)cc2c1=O", "Potency": "inconclusive [activator, partial curve]"}
{"smiles": "CC(C)NS(=O)(=O)c1ccc(NC(=O)C(C)Oc2ccc(C(=O)c3ccccc3)cc2)cc1", "note": "(stereo unspecified)", "activity change, negative = inhibition": "inconclusive: 29.3% [activator]"}
{"smiles": "Cc1ccc(-c2c(C(=O)N(C)Cc3ccccc3)oc(=O)c3ccccc23)cc1", "activity change, negative = inhibition": "inactive: 9.34%"}
{"smiles": "O=C(CN1C(=O)/C(=C/c2ccccc2F)Sc2ccccc21)NCC1CCCO1", "note": "(stereo unspecified)", "Potency": "inconclusive [activator, partial curve]"}
{"smiles": "C=CCn1c(=O)/c(=C/c2ccc(O)cc2)s/c1=C(/C#N)c1nnc2n1CCCCC2", "Potency": "inconclusive [inhibitor, single point]"}
{"smiles": "O=C(Nc1ccc(Oc2cccnc2)cc1)c1ccccc1Cl", "activity change, negative = inhibition": "inactive: -6.24%"}
{"smiles": "Cc1nnc(SCc2cccc3ccccc23)s1", "activity change, negative = inhibition": "inactive: -10.5%"}
{"smiles": "CCn1c(C(C)NC(=O)c2ccc(C)cc2)n[nH]c1=S", "note": "(stereo unspecified)", "Potency": "inconclusive [activator, partial curve]"}
{"smiles": "Cc1ccc(S(=O)(=O)c2c(C)nn(C(C)(C)C)c2OC(=O)C2CCCC2)cc1", "Potency": "inconclusive [inhibitor, single point]"}
{"smiles": "Cc1o[nH]c(=O)c1CCC(N)C(=O)O", "note": "(stereo unspecified)", "activity change, negative = inhibition": "inactive: -13.6%"}
{"smiles": "O=C(Nc1ccc(N2CCOCC2)cc1)C1CCN(C(=O)OCc2ccccc2)CC1", "activity change, negative = inhibition": "inactive: -6.31%"}
{"smiles": "COc1c(C)cccc1C(=O)Nc1cc(Cl)ccc1N1CCOCC1", "Potency": "inconclusive [activator, partial curve]"}
{"smiles": "CN(C)S(=O)(=O)c1cccc(-c2cn3cccnc3n2)c1", "Potency": "inconclusive [activator, single point]"}
{"smiles": "Cn1ncc(Cl)c1C(=O)Nc1ccc2c(c1)CCC2", "Potency": "inconclusive [inhibitor, partial curve]"}
{"smiles": "Nc1ccc(Oc2ccc([N+](=O)[O-])cc2[N+](=O)[O-])cc1", "Potency": "inconclusive [inhibitor, single point]"}
{"smiles": "Cc1cc(C)c(C#N)c(N2CCN(CCOc3ccc(Cl)cc3)CC2)n1", "Potency": "inconclusive [inhibitor, single point]"}
{"smiles": "CN(C)S(=O)(=O)Oc1ccsc1C(=O)Nc1ccc(Cl)c(Cl)c1", "Potency": "inconclusive [activator, single point]"}
{"smiles": "COc1cccc(/C=C2/Oc3ccccc3N(CC(=O)NCC3CCCO3)C2=O)c1", "note": "(stereo unspecified)", "Potency": "inconclusive [activator, single point]"}
{"smiles": "COc1ccc(C2/C=C\\CN([S+](=O)([O-])c3ccc4ccccc4c3)C(C)C(=O)N2Cc2ccc(F)cc2)cc1", "note": "(stereo unspecified)", "activity change, negative = inhibition": "inactive: -14.3%"}
{"smiles": "O=C(c1ccc(Br)cc1)c1cc(-c2ccccn2)c(N2CCOCC2)s1", "Potency": "inconclusive [activator, full curve]"}
{"smiles": "CNC(=O)c1ccc(-c2sc3nc(N4CCOCC4)c4c(c3c2N)CC(C)(C)OC4)o1", "activity change, negative = inhibition": "inactive: -19%"}
{"smiles": "N#Cc1c(-c2ccc(F)cc2)c2c([nH]c1=O)-c1ccccc1OC2", "Potency": "inconclusive [activator, full curve]"}
{"smiles": "COc1ccc(CC(NC(C)=O)C(=O)NC2CCN(c3nc(C)cc(C)c3C#N)CC2)cc1", "note": "(stereo unspecified)", "Potency": "inconclusive [inhibitor, partial curve]"}
{"smiles": "C=C(Cl)COc1cc(C)cc2oc(=O)cc(CC)c12", "activity change, negative = inhibition": "inactive: 15.1%"}
{"smiles": "COc1c(C)oc2cc(O)ccc2c1=O", "Potency": "inconclusive [activator, single point]"}
{"smiles": "Cc1ccc(-c2cc([C@H]3[C@H]4C=CC[C@@H](C)[C@@H]4C(=O)N3Cc3ccccc3)ccc2F)cc1", "Potency": "inconclusive [activator, partial curve, poor fit]"}
{"smiles": "CN1CCN(C(=O)c2cc3c(=O)n4ccccc4nc3s2)CC1", "Potency": "inconclusive [activator, partial curve]"}
{"smiles": "CCOC(=O)[C@@H]1[C@H]2COc3ccccc3[C@H]2N2C(=O)N(c3cccc(Cl)c3)C(=O)[C@@]12C", "Potency": "inconclusive [activator, partial curve, poor fit]"}
{"smiles": "O=C(COc1cc2oc(=O)c3c(c2cc1Cl)CCCC3)NCC1CCC(C(=O)O)CC1", "note": "(stereo unspecified)", "activity change, negative = inhibition": "inactive: 2.57%"}
{"smiles": "CC(=O)OCC1OC(C#CCC2CCCCC2)C=CC1OC(C)=O", "note": "(stereo unspecified)", "activity change, negative = inhibition": "inactive: -4.47% [at 12.8 µM]"}
{"smiles": "COc1ccc(-n2nc(C(=O)NCC(=O)NCCCN3CC(C)CC(C)C3)c3ccccc3c2=O)cc1Cl", "note": "(stereo unspecified)", "Potency": "inconclusive [inhibitor, full curve, poor fit]"}
{"smiles": "Cc1sc(NC(=S)NC(=O)c2ccc(C(C)(C)C)cc2)c(C#N)c1C", "Potency": "inconclusive [activator, partial curve]"}
{"smiles": "CCc1ccc2oc(-c3ccc(OC)cc3)cc(=Nc3c(C)n(C)n(-c4ccccc4)c3=O)c2c1", "Potency": "inconclusive [activator, single point]"}
{"smiles": "CN1CCN(NC(=O)CN2C(=O)/C(=C/c3ccccc3Cl)SC2=S)CC1", "Potency": "inconclusive [inhibitor, partial curve]"}
{"smiles": "CCOc1ccc(S(=O)(=O)Oc2ccc3ccccc3c2)cc1", "activity change, negative = inhibition": "inconclusive: 35.5% [activator]"}
{"smiles": "CC1CCCN(S(=O)(=O)c2ccc3c(c2)c(=O)nc2ccc(Cl)cn23)C1", "note": "(stereo unspecified)", "Potency": "inconclusive [activator, full curve, poor fit]"}
{"smiles": "COc1cc(/C=C(/C#N)C(=O)Nc2ccccc2)c(Br)cc1OCc1ccc(C(=O)O)cc1", "Potency": "inconclusive [inhibitor, single point]"}
{"smiles": "O=C(COC(=O)CCCN=C1NS(=O)(=O)c2ccccc21)NC(=O)NC1CCCC1", "Potency": "inconclusive [inhibitor, single point]"}
{"smiles": "CCN(CC(=O)NC(=O)NCc1ccccc1)Cc1nc2ccccc2c(=O)[nH]1", "Potency": "inconclusive [activator, partial curve]"}
